Experimental data as given in PubChem BioAssay AID504332 (National Center for Advancing Translational Sciences (NCATS), 2011).
In all, about 350,000 compounds went through this assay and about 31,000 (8.9%) were called active. Inconclusive means that the source gave no clear call. Such entries were picked first, then a sample of the others. Calls follow the shape of the dose curve; as a rule, active = well fitted inhibition curve with a large enough effect; inconclusive = small, poorly fitted or top-dose-only effect; inactive = no such curve, though single readings can be large or run the other way. Where the call is inconclusive, the potency comes from a doubtful curve fit.

biological target: Histone-lysine N-methyltransferase EHMT2 (Homo sapiens) (UniProt Q96KQ7); experiment: qHTS Assay for Inhibitors of Histone Lysine Methyltransferase G9a; conditions: G9a H3K9 monomethylation, AlphaScreen, 2 h; activity, negative = inhibition: at 59 µM (top of the series) unless noted; also: nearly all actives have a fitted effect of over 75% in size
Chain of UniProt Q96KQ7 (Q96KQ7 whole entry, looked up): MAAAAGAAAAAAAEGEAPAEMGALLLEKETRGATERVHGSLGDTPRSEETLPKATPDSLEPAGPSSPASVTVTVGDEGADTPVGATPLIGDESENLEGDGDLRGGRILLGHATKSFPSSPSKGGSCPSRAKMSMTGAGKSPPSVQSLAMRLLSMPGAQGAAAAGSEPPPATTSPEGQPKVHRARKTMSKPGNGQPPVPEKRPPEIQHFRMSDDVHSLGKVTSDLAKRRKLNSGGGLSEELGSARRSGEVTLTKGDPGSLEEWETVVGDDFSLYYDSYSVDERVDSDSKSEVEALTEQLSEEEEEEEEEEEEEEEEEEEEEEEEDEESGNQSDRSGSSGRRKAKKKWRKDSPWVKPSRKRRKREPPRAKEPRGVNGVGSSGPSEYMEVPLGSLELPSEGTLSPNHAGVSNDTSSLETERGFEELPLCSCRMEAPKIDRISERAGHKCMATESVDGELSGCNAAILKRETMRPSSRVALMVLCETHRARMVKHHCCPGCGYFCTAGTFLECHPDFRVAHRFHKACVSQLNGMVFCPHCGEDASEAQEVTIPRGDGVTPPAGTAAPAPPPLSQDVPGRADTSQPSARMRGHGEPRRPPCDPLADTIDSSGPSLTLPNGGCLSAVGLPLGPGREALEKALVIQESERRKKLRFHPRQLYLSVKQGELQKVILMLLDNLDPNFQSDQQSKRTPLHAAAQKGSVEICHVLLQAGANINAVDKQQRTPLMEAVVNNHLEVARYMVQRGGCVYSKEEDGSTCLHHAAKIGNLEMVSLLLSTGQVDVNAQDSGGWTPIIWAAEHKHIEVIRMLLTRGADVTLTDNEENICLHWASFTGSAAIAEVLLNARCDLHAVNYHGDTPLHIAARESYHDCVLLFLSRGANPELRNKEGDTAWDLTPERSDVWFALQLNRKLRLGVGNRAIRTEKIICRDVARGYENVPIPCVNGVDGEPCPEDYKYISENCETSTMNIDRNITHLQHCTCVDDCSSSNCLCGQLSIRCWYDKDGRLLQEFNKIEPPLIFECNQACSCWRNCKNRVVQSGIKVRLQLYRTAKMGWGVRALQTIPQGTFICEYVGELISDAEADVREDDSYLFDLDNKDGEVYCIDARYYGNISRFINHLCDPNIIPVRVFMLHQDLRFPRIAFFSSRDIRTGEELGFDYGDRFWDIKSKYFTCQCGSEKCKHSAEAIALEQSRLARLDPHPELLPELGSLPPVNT
Outline: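 Step 1: enzyme (final 20 nM) with compound, 15 min RT. Step 2: substrate peptide 500 nM and SAM 20 uM, 2 h RT. Step 3: anti-H3K9me1 antibody and AlphaScreen beads, 10 min, then plate read.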
% is scaled to controls: 0 for no effect and ±100 for the full control effect; potency is read from the fitted curve at half-maximal effect; tags tell the direction and shape of the fitted curve.

SMILES | Potency | activity, negative = inhibition
N#CC1(C#N)C(c2ccccc2)OC23CCCCCC2C1(C#N)C(=N)O3 (configuration not stated) | inconclusive: 22.4 µM [inhibitor, single point] | 
Cc1sc2ncnc(N3CCC(C(=O)Nc4ccc(Cl)cc4Cl)CC3)c2c1C | active: 56.2 µM | 
Cc1ccc(NC(=O)CCCn2nc(C)c3sc4ccccc4c3c2=O)c(Cl)c1 | inconclusive: 22.4 µM [inhibitor, single point] | 
COc1ccc(C(=O)NCc2nnc(SCC(=O)Nc3ccccc3F)o2)cc1 | inconclusive: 39.8 µM [inhibitor, partial curve, poor fit] | 
CCC(C(=O)Nc1cccc(C#N)c1)n1nc(-c2ccccc2)ccc1=O (configuration not stated) |  | inactive: -27.7%
Cc1ccc(-c2nnc(Nc3cccc(Br)c3)c3ccccc23)cc1S(=O)(=O)NCC1CCCO1 (configuration not stated) |  | inactive: -31.8%
O=C(NCCC1=CCCCC1)c1ccc2c(c1)N(Cc1ccc(Cl)cc1)C(=O)c1ccccc1S2(=O)=O |  | inactive: -0.895%
COc1ccc(OC)c(NC(=O)CSC2=Nc3ccccc3C3=NC(CCC(=O)NCCc4ccccc4)C(=O)N23)c1 (configuration not stated) |  | inactive: 3.22%
Cc1nnc(NCc2ccc(F)cc2)c2c1nnn2Cc1ccccc1Cl |  | inactive: -2.91%
Cc1ccc(C2=NNC(C(O)C(O)C(O)CO)S2)cc1 (configuration not stated) | active: 8.91 µM | 
Cc1ccc(C(c2sc3nc(C)nn3c2O)N2CCN(C(=O)c3ccco3)CC2)cc1 (configuration not stated) |  | inactive: 5.06%
Cc1ccc(Cl)cc1Nc1nc(-c2sc(NC(=O)C(C)(C)C)nc2C)cs1 | inconclusive: 35.5 µM [inhibitor, single point] | 
COc1ccc(-c2csc(Nc3ccc(S(=O)(=O)Nc4cc(C)on4)cc3)n2)cc1 | active: 44.7 µM | 
CCOC(=O)N1CCN(S(=O)(=O)c2cc([N+](=O)[O-])c(C)cc2C)CC1 |  | inactive: -4.86% [at 102 µM]
CC(C)(C)C(=O)Nc1ccc(-c2nc3ccccc3c(=O)o2)cc1 | inconclusive: 0.398 µM [inhibitor, partial curve, poor fit] | 
O=C(N/N=C/c1ccc(O)c(O)c1)C1c2ccccc2Oc2ccccc21 |  | inconclusive: -74.6% [inhibitor]
CCC(c1nnnn1Cc1ccco1)N(Cc1cc2cc(OC)ccc2[nH]c1=O)C1CCCCC1 (configuration not stated) | active: 3.16 µM | 
N#Cc1nc(COc2ccc(F)cc2)oc1NCCN1CCOCC1 | active: 79.4 µM | 
CC(=O)N1Cc2ccccc2CC1C(=O)OCC(=O)c1c(N)n(C)c(=O)n(C)c1=O (configuration not stated) | inconclusive: 89.1 µM [inhibitor, single point] | 
Cc1ccc([N+](=O)[O-])c(OCCN2CCCCCC2)c1 | inconclusive: 5.01 µM [inhibitor, partial curve, poor fit] | 
CCn1c(=O)cc(SCC(=O)N2CCN(c3ccccc3OC)CC2)c2ccccc21 | inconclusive: 56.2 µM [inhibitor, partial curve, poor fit] | 
COc1ccc(CCNC(=O)Cn2nc(C)c3c(C)n(-c4ccc(C)cc4)nc3c2=O)c(OC)c1 | inconclusive: 4.47 µM [inhibitor, full curve, poor fit] | 
CCCn1c(SCC(=O)c2cc(C)c(C)cc2C)n[nH]c1=O | active: 11.2 µM | 

SMILES | Potency | activity, negative = inhibition
CCOC(=O)C(=O)NNc1cccc(C)c1C | active: 0.631 µM | 
CCn1c(CC(=O)Nc2ccccc2C)nnc1SCC(=O)NC1CCCC1 | inconclusive: 89.1 µM [inhibitor, single point] | 
CC(C)N(Cc1nnc(-c2ccc(Cl)cc2)o1)C(=O)C1=COCCO1 |  | inactive: -1.89% [at 102 µM]
CCOc1cccc2cc(C(=O)N3CC(C)OC(C)C3)c(=O)oc12 (configuration not stated) |  | inactive: 13.6% [at 102 µM]
Cc1cnc(NC(=O)CSc2nnc(C)s2)s1 | inconclusive: 89.1 µM [inhibitor, single point] | 
CC(=O)/C(=N/Nc1ccccc1)Sc1nnc(CCc2ccccc2)n1-c1ccccc1 | inconclusive: 89.1 µM [inhibitor, single point] | 
O=C(CSc1ccc2nnc(-c3ccncc3)n2n1)N1CCc2ccccc21 | inconclusive: 20 µM [inhibitor, partial curve, poor fit] | 
Cc1cc(Cl)ccc1NNC(N)=S | active: 20 µM | 
Cn1nnnc1SCC(=O)Nc1nc2c(s1)CCCC2 |  | inactive: -3.97% [at 12.7 µM]
Cc1noc(/C=C/c2ccco2)c1S(=O)(=O)N1CCC(C(=O)N2CCc3ccccc3C2)CC1 |  | inconclusive: -75.7% [inhibitor]
CCOC(=O)c1c(C)oc2nc(C)nc(NCc3ccc(OC)cc3)c12 |  | inactive: -3.05%
CCCc1cc(=O)[nH]c(Nc2ccc(C)c(O)c2)n1 | inconclusive: 39.8 µM [inhibitor, partial curve, poor fit] | 
CCN(CC(=O)Nc1cccc(S(=O)(=O)N2CCCCC2)c1)Cc1ccccc1 | inconclusive: 28.2 µM [inhibitor, partial curve, poor fit] | 
CCOC(=O)C1CCN(Cc2ccc(N(C)C)cc2)CC1 | inconclusive: 2.51 µM [inhibitor, partial curve, poor fit] | 
COC(=O)N1[C@H](Cc2ccccc2)C=C[C@]1(C)C(=O)O | inconclusive: 89.1 µM [inhibitor, single point] | 
COc1cc(C(=O)Nc2ccc(S(=O)(=O)Nc3cnc4ccccc4n3)cc2)cc(OC)c1OC | inconclusive: 79.4 µM [inhibitor, single point] | 
Cc1cccnc1CCNC(=O)c1ccc(OC2CCN(Cc3ccccn3)CC2)cc1 | inconclusive: 35.5 µM [inhibitor, partial curve, poor fit] | 
CCN(CC)c1ccc(NC(=O)C2=CC=CN3CCS(=O)(=O)N=C23)cc1 | inconclusive: 1.41 µM [inhibitor, partial curve, poor fit] | 
CN(C)CCNC(=O)c1cccc(S(=O)(=O)Nc2ccccc2F)c1 | inconclusive: 35.5 µM [inhibitor, partial curve, poor fit] | 
COc1ccc(NS(=O)(=O)c2cc3c(cc2C)N(C)CCO3)c(OC)c1 | inconclusive: 89.1 µM [inhibitor, single point] | 
CC1Cc2ccccc2N1C(=O)CNc1ccccc1N1CCCCC1 (configuration not stated) | inconclusive: 39.8 µM [inhibitor, single point] | 
O=C(COC(=O)c1cc([N+](=O)[O-])ccc1N1CCOCC1)NCc1ccc(Cl)cc1Cl | inconclusive: 0.251 µM [inhibitor, full curve, poor fit] | 
COc1ccccc1NC(=O)NS(=O)(=O)c1ccc(C)cc1 | inconclusive: 6.31 µM [inhibitor, single point] | 

SMILES | Potency | activity, negative = inhibition
c1csc(COc2ccccc2CNC2CCCCC2)c1 | inconclusive: 89.1 µM [inhibitor, single point] | 
CN(C)C(C)(C)/C=C/C(O)(c1ccccc1)c1ccccc1 | inconclusive: 89.1 µM [inhibitor, single point] | 
CN(C)CCCNC(=S)NCCNc1nc2cc3c(cc2cc1C#N)OCO3 | inconclusive: 89.1 µM [inhibitor, partial curve, poor fit] | 
COC(=O)c1c(NC(=S)NNC(=O)c2ccc(Cl)s2)sc(C(=O)N(C)C)c1C | active: 28.2 µM | 
CCC(=O)Nc1cccc(NC(=S)NC(=O)c2ccccc2C)c1 | inconclusive: 12.6 µM [inhibitor, partial curve, poor fit] | 
CC1(C)C(=O)Nc2ccccc2N1C(=O)COC(=O)c1cccnc1 | inconclusive: 39.8 µM [inhibitor, single point] | 
COc1ccc(/C=N/NC(=O)c2cc(C)n(-c3ccccc3)c2C)cc1OC | inconclusive: 39.8 µM [inhibitor, full curve] | 
Cc1ccc(N=C2C(=S)N(c3ccc(C)cc3)C(=N)N2/N=C/c2ccc(Cl)cc2)cc1 | inconclusive: 3.98 µM [inhibitor, full curve, poor fit] | 
O=C(CSc1nc(NS(=O)(=O)c2ccccc2)cc(=O)[nH]1)Nc1cccc(C(F)(F)F)c1 | inconclusive: 89.1 µM [inhibitor, single point] | 
Cc1onc(-c2ccccc2Cl)c1C(=O)NC(=S)Nc1ccccc1C(N)=O | inconclusive: 28.2 µM [inhibitor, single point] | 
Cc1ccc(-c2[nH]c3ccccc3c2SCCNC(=O)c2cc3ccccc3oc2=O)cc1 | inconclusive: 31.6 µM [inhibitor, partial curve, poor fit] | 
Cc1cccn2cc(CCNS(=O)(=O)c3ccc4c(c3)OCCO4)nc12 | inconclusive: 28.2 µM [inhibitor, full curve] | 
COc1ccc(Cl)cc1C(=O)NNC(=O)C1CCCO1 (configuration not stated) | inconclusive: 89.1 µM [inhibitor, partial curve, poor fit] | 
C[C@@H](C(=O)O)[C@H]1C[C@]1(C)[C@H](NC(=O)OCc1ccccc1)c1ccccc1 | active: 79.4 µM | 
CCn1ncc(Br)c1C(=O)Nc1ccccc1OC |  | inactive: 6.29% [at 102 µM]
CCN(CC)CCNS(=O)(=O)c1ccc2[nH]cc(C(=O)O)c(=O)c2c1 |  | inconclusive: -138% [inhibitor]
COc1ccc(-c2nn(Cc3ccccc3)cc2C(=O)N2CCN(c3ncccn3)CC2)cc1 | inconclusive: 35.5 µM [inhibitor, single point] | 
Cn1nccc1-c1cc(Cl)cc(Cl)c1O | inconclusive: 35.5 µM [inhibitor, partial curve] | 
O=C(NC(=S)Nc1ccc(NC(=O)c2ccccc2)cc1)c1ccc(F)cc1 | inconclusive: 89.1 µM [inhibitor, single point] | 
CC(=O)c1c(COC(=O)c2ccncc2)nc2ccccc2[n+]1[O-] | active: 1 µM | 
COCCCNC(=O)Cn1nnc(-c2ccc(NC(=O)c3ccc(F)cc3)cc2)n1 | inconclusive: 2.82 µM [inhibitor, partial curve, poor fit] | 
